Test results reported in the supplement of paper PMC4723716.
± gives the uncertainty stated by the source. Over roughly 9,900 compounds, “viability index relative to DMSO control” has its median near 1; the lowest 2% begin near 0.85. The list shows a part of the results.

These compounds were tested on Plasmodium falciparum NF54 stage V gametocytes (assay: viability index relative to DMSO control (fraction); higher = less gametocyte killing). Settings: 2.5 µM, library set: Broad Institute DOS, incubation time: 72 h.
Procedure, shortened: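 P. falciparum NF54 stage V gametocytes in serum-free screening medium (0.75% gametocytemia, 1.25% hematocrit, 10 µl) were incubated with compound at 2.5 µM in 1,536-well plates for 72 hr at 37°C under low oxygen. Then 3 µl of 2.5 µM MitoTracker Red CMXRos plus 0.13% saponin was added for one to two hours. One field per well was imaged, 20–70 µm2 red particles were counted, and the viability index was the count divided by the plate mean of DMSO wells.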

SMILES | viability index
O=C(Cc1ccccn1)N1CC(=O)N2[C@H](CO)[C@H](c3ccc(C#CCC4CCCC4)cc3)[C@H]2C1 | 0.911 ± 0.098
CCCC(=O)Nc1ccc2c(c1)OC[C@H](C)N(S(=O)(=O)c1cn(C)cn1)C[C@@H](C)[C@H](OC)CN(C)C2=O | 1.07 ± 0.059
C[C@H](CO)N1C[C@H](C)[C@@H](CN(C)Cc2ccc(C(=O)Nc3ccccc3N)cc2)Oc2ccc(NC(=O)Cn3cnnn3)cc2C1=O | 0.976 ± 0.11
Cc1cccc(S(=O)(=O)N2CC[C@@H]3[C@H](CO)N(C)c4ccc(Br)cc4[C@@H]32)c1 | 1.09 ± 0.051
CCCNC(=O)Nc1ccc2c(c1)OC[C@H](C)N(Cc1cncnc1)C[C@@H](C)[C@H](OC)CN(C)C2=O | 0.989 ± 0.014
Cc1cccc(S(=O)(=O)N2CC[C@@H]3[C@@H](CO)Nc4ccc(-c5ccccc5F)cc4[C@@H]32)c1 | 1.18 ± 0.029
C[C@H](CO)N1C[C@H](C)[C@@H](CN(C)S(=O)(=O)c2cccc(C#N)c2)OCc2cn(nn2)CCCC1=O | 1.03 ± 0.11
Cc1noc(C)c1NC(=O)Nc1ccc2c(c1)C(=O)N([C@H](C)CO)C[C@H](C)[C@@H](CN(C)Cc1ccc3c(c1)OCO3)OCCCC[C@@H](C)O2 | 1.12 ± 0.13
O=C(NCc1ccccc1F)[C@@H]1[C@@H](CO)[C@@H]2Cn3c(cccc3=O)[C@@H]2N1CC1CCCC1 | 1.09 ± 0.057
CNC[C@@H]1Oc2c(NS(=O)(=O)c3ccc(Cl)cc3)cccc2C(=O)N([C@H](C)CO)C[C@@H]1C | 1.091 ± 0.0069
O=C(NCCc1ccccc1)[C@@H]1[C@@H](CO)[C@@H]2Cn3c(ccc(-c4cccc(F)c4)c3=O)[C@H]1N2 | 0.936 ± 0.059
COc1ccc2c3c([C@H](CO)N(C[C@]33CCN(C)CC3)S(=O)(=O)c3ccc(C)cc3)n(C)c2c1 | 1.06 ± 0.1
CCNC(=O)[C@@H]1[C@@H](CO)[C@@H]2Cn3c(cccc3=O)[C@H]1N2C(=O)Nc1cc(F)ccc1F | 1.01 ± 0.046
O=C(C[C@@H]1CC[C@H]2[C@@H](COC[C@H](O)CN2CC2CCOCC2)O1)NCC1CCCCC1 | 1.2 ± 0.091
Cc1ccccc1S(=O)(=O)N1CCCCN2[C@H](CO)[C@@H](c3ccc(C#CCN(C)C)cc3)[C@@H]2C1 | 1.01 ± 0.087
Cc1nc(N2[C@H](C#N)[C@H](c3ccccc3)[C@H]2CO)sc1C | 1.09 ± 0.08
COc1ccccc1S(=O)(=O)N1CC[C@@H]2[C@@H](CO)Nc3ccc(-c4ccc(C#N)cc4)cc3[C@@H]21 | 1.1 ± 0.028
O=C1CNC[C@@H]2[C@H](c3ccc(C#Cc4cccnc4)cc3)[C@@H](CO)N12 | 0.97 ± 0.05
O=C(C1CCOCC1)N1[C@@H](CO)[C@H](c2ccccc2)C12CN(CCC(F)(F)F)C2 | 1.12 ± 0.015
N#Cc1cccc(-c2ccc([C@@H]3[C@H]4CNC[C@@H]3N4S(=O)(=O)c3ccc(F)cc3)cc2)c1 | 1.06 ± 0.029
CCS(=O)(=O)Nc1ccc2c(c1)C(=O)N(C)[C@H]1CC[C@@H](CC(=O)NCc3ccc(OC)cc3)O[C@@H]1CO2 | 0.902 ± 0.11
N#C[C@H]1[C@H](c2ccc(-c3cncnc3)cc2)[C@@H](CO)N1C(=O)Cc1ccccc1 | 1.06 ± 0.1
C[C@@H]1CN([C@@H](C)CO)C(=O)CCCn2nncc2CO[C@H]1CN(C)C(=O)Nc1cccc(Oc2ccccn2)c1 | 1.05 ± 0.05
Cc1noc(C)c1NC(=O)N(C)C[C@H]1OCc2ccccc2-c2c(n(C)c3ccccc23)C(=O)N([C@@H](C)CO)C[C@H]1C | 0.994 ± 0.079

SMILES | viability index
CS(=O)(=O)N1[C@H](CO)[C@@H](c2ccccc2)C12CN(C(=O)c1ccccc1F)C2 | 1.11 ± 0.018
O=C(C[C@@H]1C=C[C@@H](NC(=O)c2cnccn2)[C@@H](CO)O1)NCc1ccccc1F | 1.11 ± 0.054
C[C@@H]1CC(=O)NCC/C=C\C[C@H](c2cccc(Cl)c2)NC1=O | 1.057 ± 0.0052
CC(=O)N1CCCCN2[C@H](CO)[C@H](c3ccc(-c4ccccc4)cc3)[C@@H]2C1 | 0.9842 ± 0.0065
O=C(NCC[C@H]1CC[C@@H](NC(=O)C2CCOCC2)[C@@H](CO)O1)c1cc(Cl)cc(Cl)c1 | 0.97 ± 0.087
COc1cccc(S(=O)(=O)N2C[C@@H](O)COC[C@@H]3O[C@@H](CC(=O)NCCCN4CCOCC4)CC[C@H]32)c1 | 1.06 ± 0.094
C[C@H]1CN([C@@H](C)CO)C(=O)Cc2cc(NS(=O)(=O)c3cccs3)ccc2O[C@@H]1CN(C)CC1CCCCC1 | 1.07 ± 0.1
COc1ccc2c3c([C@@H](CO)N(C[C@]33CN(Cc4ccccc4OC)C3)C(=O)C3CC3)n(C)c2c1 | 1.07 ± 0.02
CN1CCN(C(=O)c2cc3c(c(-c4cccc(-c5cccnc5)c4)n2)[C@H](CCO)N(C(=O)CC2CC2)C3)CC1 | 1.013 ± 0.0071
CS(=O)(=O)N1C[C@@H](O)COC[C@H]2O[C@H](CC(=O)NCc3ccccc3)CC[C@@H]21 | 0.998 ± 0.044
C[C@@H]1CN([C@@H](C)CO)C(=O)c2cccc(N(C)C)c2O[C@H]1CN(C)Cc1ccncc1 | 1.05 ± 0.085
O=C(C[C@@H]1C[C@@H]2c3cc(NS(=O)(=O)c4ccc(F)cc4)ccc3O[C@@H]2[C@H](CO)O1)NCCN1CCCCC1 | 1.01 ± 0.056
COc1ccc(-c2ccc([C@@H]3[C@@H](CO)N4C(=O)CN(Cc5ccccc5)C[C@H]34)cc2)cc1 | 1.045 ± 0.0052
C[C@@H]1CN([C@@H](C)CO)C(=O)c2cc(NS(=O)(=O)c3ccc(Cl)cc3)ccc2O[C@@H](C)CCCCO[C@H]1CN(C)Cc1ccncc1 | 1.06 ± 0.045
O=C(NCc1ccccc1F)[C@H]1[C@H](CO)[C@H]2Cn3c(cccc3=O)[C@H]2N1CC1CCCC1 | 1.01 ± 0.025
CN(Cc1ccccc1F)C[C@H]1[C@@H](c2ccccc2)[C@@H](CO)N1S(C)(=O)=O | 1 ± 0.032
CO[C@H](CN(C)Cc1cc(F)ccc1F)[C@@H](C)CN([C@@H](C)CO)S(=O)(=O)c1ccc(C)cc1 | 1.09 ± 0.043
Cc1noc(C)c1S(=O)(=O)N(C)C[C@@H]1OCc2ccccc2-c2ccccc2C(=O)N([C@@H](C)CO)C[C@@H]1C | 1.09 ± 0.011
O=C(C[C@H]1CC[C@@H]2[C@H](COC[C@H](O)CN2Cc2nccs2)O1)N1CCC(Cc2ccccc2)CC1 | 1.06 ± 0.12
COc1cccc(S(=O)(=O)N[C@@H]2CC[C@H](CC(=O)NC3Cc4ccccc4C3)O[C@H]2CO)c1 | 0.907 ± 0.18
CCC(=O)N1[C@@H](CO)[C@@H](c2ccccc2)C12CN(C(=O)Nc1ccccc1F)C2 | 0.951 ± 0.021
CCC(=O)N[C@@H]1CC[C@@H](CC(=O)NCc2ccccc2F)O[C@H]1CO | 1.11 ± 0.089
CS(=O)(=O)N1Cc2cc(C(=O)NCC3CC3)nc(-c3cccc(-c4cncnc4)c3)c2[C@@H]1CCO | 1.03 ± 0.018
C[C@@H]1CN([C@H](C)CO)C(=O)c2cc(NS(C)(=O)=O)ccc2O[C@@H](C)CCCCO[C@@H]1CN(C)CC1CCCCC1 | 1.12 ± 0.13

SMILES | viability index
CC(C)[C@@H]1C(=O)NCC/C=C/C[C@H](C)Oc2ccccc2C(=O)N1C.CC(C)[C@@H]1C(=O)NCC/C=C\C[C@H](C)Oc2ccccc2C(=O)N1C | 0.942 ± 0.026
CO[C@H]1CC[C@H]2CCOc3c(C#N)cccc3C(=O)N(C)CCCC(=O)N(C)C[C@@H]1O2 | 1.02 ± 0.088
COc1ccc2c3c([nH]c2c1)[C@H](CO)N(C[C@]31CCN(Cc2nccs2)CC1)C(=O)C1CCOCC1 | 1.01 ± 0.017
CN1C(=O)c2cc(NC(=O)c3ccc(F)c(F)c3)ccc2OC[C@@H]2O[C@H](CC(=O)N3CCCCC3)CC[C@H]21 | 0.986 ± 0.14
CCCNC(=O)N1C[C@H](C)[C@H](OC)CN(C)C(=O)c2ccc(NC(=O)CC)cc2OC[C@@H]1C | 1.04 ± 0.051
CO[C@@H]1CN(C)C(=O)c2cc(NC(=O)c3cccc(F)c3)ccc2OC[C@@H](C)N(C)C[C@H]1C | 1 ± 0.051
COc1ccc(C(=O)N2C[C@H]3[C@@H](c4ccccc42)[C@@H](CO)N3Cc2ccccc2Cl)cc1 | 0.984 ± 0.092
CS(=O)(=O)N1CC(=O)N2[C@@H](CO)[C@H](c3ccc(C#CCC4CCCC4)cc3)[C@@H]2C1 | 1.01 ± 0.033
CN1C[C@H]2[C@@H](c3ccccc31)[C@H](CO)N2Cc1ccccc1Cl | 1.03 ± 0.064
C[C@H]1CN([C@@H](C)CO)C(=O)c2ccccc2-c2ccccc2CO[C@H]1CN(C)Cc1cccnc1 | 0.97 ± 0.24
COc1ccccc1CNC(=O)C[C@@H]1C=C[C@H](NC(=O)CC2CC2)[C@H](CO)O1 | 0.989 ± 0.039
CCS(=O)(=O)N[C@@H]1CC[C@H](CC(=O)NCc2ccc(Cl)cc2)O[C@@H]1CO | 1.06 ± 0.029
CC(C)N(C[C@@H]1[C@H](c2ccccc2)[C@@H](CO)N1S(C)(=O)=O)C(=O)CN(C)C | 1.01 ± 0.1
CO[C@H]1CN(C)C(=O)c2cc(NS(=O)(=O)c3cn(C)cn3)ccc2OC[C@@H](C)NC[C@@H]1C | 0.994 ± 0.021
CN(C)CC(=O)N[C@H]1CC[C@@H](CCNC(=O)C2CCC2)O[C@H]1CO | 1.11 ± 0.058
C[C@H]1CN([C@@H](C)CO)C(=O)c2cc(N(C)C)ccc2O[C@H]1CN(C)Cc1ccc(Oc2ccccc2)cc1 | 0.959 ± 0.1
CS(=O)(=O)N1CC(=O)N2[C@H](CO)[C@H](c3ccc(C#Cc4ccc(F)cc4)cc3)[C@@H]2C1 | 1.017 ± 0.0076
O=C(N[C@@H]1CC[C@@H](CCn2cc(-c3ccccc3F)nn2)O[C@H]1CO)c1ccc2c(c1)OCO2 | 1.18 ± 0.042
COc1ccc2c3c([nH]c2c1)[C@H](CO)N(CC1CC1)C[C@]31CCN(CC1)S(=O)(=O)c1cccc(F)c1 | 1.04 ± 0.087
Cc1cccc(-c2ccc([C@H]3[C@H]4CNC[C@@H]3N4Cc3cccc(F)c3)cc2)c1 | 1.03 ± 0.038
COc1cccc(S(=O)(=O)Nc2ccc3c(c2)[C@@H]2C[C@@H](CC(=O)NC4CCCCC4)O[C@@H](CO)[C@@H]2O3)c1 | 0.9585 ± 0.0026
COc1ccc2c3c([C@@H](CO)N(Cc4nccs4)C[C@]33CCN(CC4CCCC4)CC3)n(C)c2c1 | 0.848 ± 0.029
O=C(C[C@H]1C=C[C@H](NS(=O)(=O)c2ccccc2)[C@H](CO)O1)NCCN1CCCCC1 | 1.14 ± 0.094
C/C=C/c1ccc([C@@H]2[C@@H](CO)N(C(C)=O)[C@@H]2CNC(=O)c2ccccc2)cc1 | 0.932 ± 0.062
